Experimental data: PubChem BioAssay (Tox21)
The shares of active, inactive and inconclusive entries below differ from those in the screen. For some of these results: A potency beside an inconclusive call is a rough fit, not a confirmed value. Where a structure was tested more than once in an assay, its records may differ in their call. The source made the active and inactive calls. Unless noted, the call rests on the fitted dose curve.

How the values were obtained:
[1] = target: Estrogen receptor beta (Homo sapiens) (UniProt Q92731); experiment: qHTS assay to identify small molecule agonists of the estrogen receptor beta (ER-beta) signaling pathway (AID 1259377; active means well fitted activation curve with a large enough effect in the signal ratio in the repeat runs, not every such curve was filed as active; inconclusive means weak or mixed curves, or effect the other way; the % refers to the signal ratio; further: potency means the concentration at half of the fitted maximal effect; on activation: on the % scale 0 is the no-effect control and ±100 the full control effect); conditions: ER-beta-UAS-bla HEK293T, beta-lactamase FRET ratio, 16 h; activation: at 92.4 µM (top of the series) unless noted
Summary of the method: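 Beta-lactamase reporter readout: fluorescence of LiveBLAzer B/G FRET substrate after 2 h at room temperature, following 16 h compound treatment of ER-beta-UAS-bla HEK293T cells at 37C in 2% charcoal-stripped FBS medium.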

[2] = target: Estrogen receptor beta (Homo sapiens) (UniProt Q92731); experiment: qHTS assay to identify small molecule antagonists of the estrogen receptor beta (ER-beta) signaling pathway (AID 1259378; active means well fitted inhibition curve with a large enough effect in the signal ratio in the repeat runs, not every such curve was filed as active; inconclusive means weak or mixed curves, or effect the other way; inactive means no such curve, though single readings can be large or run the other way; the % refers to the signal ratio; further: potency means the concentration at half of the fitted maximal effect; on activity, negative = inhibition: on the % scale 0 is the no-effect control and ±100 the full control effect); conditions: ER-beta-UAS-bla HEK293T, beta-lactamase FRET ratio, 16 h; activity, negative = inhibition: at 92.4 µM (top of the series) unless noted
Summary of the method: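 Antagonist mode: compounds added to beta-lactamase reporter HEK293T ER-beta-UAS cells stimulated with E2 (1nM final), 16 hr at 37C. LiveBLAzer B/G FRET substrate, 2 hours room temperature, fluorescence read-out.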

[3] = qHTS assay to identify small molecule agonists of the estrogen receptor beta (ER-beta) signaling pathway - cell viability counter screen (AID 1259380; active means well fitted curve in the direction sought with a large enough effect in the repeat runs; inconclusive means weak or mixed curves; inactive means no such curve, though single readings can be large; an effect the other way counts as inactive or inconclusive; further: nearly all actives have a fitted effect of over 30% in size; further: potency means the concentration at half of the fitted maximal effect)
Summary of the method: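 Measured: luminescence from CellTiter-Glo after 30 min at room temperature, added to wells already read for the LiveBLAzer FRET reporter (2 hr substrate); ER-beta-UAS-bla HEK293T cells had 16 hr compound treatment at 37C, 5% CO2.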

[4] = qHTS assay to identify small molecule agonists or antagonists of the thyroid stimulating hormone receptor (TSHR) signaling pathway - wild type cell line counter screen (AID 1259384); conditions: HEK293 wild type, cAMP HTRF counter-screen; cAMP activity change: at 92.4 µM (top of the series), active compounds read high unless noted; further: potency means the concentration at half of the fitted maximal effect
Summary of the method: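 Counter screen in untransfected Hek293: compounds (15-point titration, triplicate) plus phosphodiesterase inhibitor Ro20-1724 added after 18 h plating; 30 min RT. Intracellular cAMP via competitive d2/cryptate immunoassay, 1 h incubation.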

[5] = target: Thyrotropin receptor (Homo sapiens) (UniProt P16473); experiment: qHTS assay to identify small molecule antagonists of the thyroid stimulating hormone receptor (TSHR) signaling pathway (AID 1259385); conditions: TSHR-HEK293 cAMP HTRF, TSH-stimulated antagonist mode; activity change, negative = inhibition: at 92.4 µM (top of the series) unless noted; further: nearly all actives have a fitted effect of over 20% in size; further: potency means the concentration at half of the fitted maximal effect; on activity change, negative = inhibition: on the % scale 0 is the no-effect control and ±100 the full control effect
Summary of the method: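 Antagonist mode: compound-treated TSHR-expressing HEK293 cells were stimulated with 1.5 ng/mL TSH (final) in presence of Ro20-1724 for 30 min at RT. HTRF cAMP detection after 1 h; each compound tested at 15 concentrations, triplicate.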

[6] = qHTS assay to identify small molecule agonists of the estrogen receptor alpha (ER-alpha) signaling pathway in the presence of an antagonist - cell viability counter screen (AID 1259386; active means well fitted curve in the direction sought with a large enough effect in the repeat runs; inconclusive means weak or mixed curves; inactive means no such curve, though single readings can be large; an effect the other way counts as inactive or inconclusive;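 further: potency means the concentration at half of the fitted maximal effect; cells exposed to compounds for 22 h at 37 °C before the viability read; nearly all actives have a fitted effect of over 30% in size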)
Summary of the method: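 The test measures whether compounds kill ER-alpha reporter cells (VM7Luc4E2) under antagonist co-treatment (ICI-182,780, 10.0nM). Fluorescence from CellTiter-Fluor is read after a 22hr exposure.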

[7] = target: Progesterone receptor (Homo sapiens) (UniProt P06401); experiment: qHTS assay to identify small molecule agonists of the progesterone receptor (PR) signaling pathway (AID 1346784); conditions: PR-UAS-bla HEK293T, beta-lactamase FRET ratio, 16 h; further: on the % scale 0 is the no-effect control and ±100 the full control effect; nearly all actives have a fitted effect of over 30% in size
Summary of the method: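 HEK 293T PR-UAS-bla reporter cells, 2% charcoal-stripped FBS; 6 hr settle at 37C/5% CO2, compound (DMSO) 16 hr, LiveBLAzer B/G FRET substrate 2 hr RT, fluorescence intensity read.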

[8] = target: Progesterone receptor (Homo sapiens) (UniProt P06401); experiment: qHTS assay to identify small molecule antagonists of the progesterone receptor (PR) signaling pathway (AID 1346795; active means well fitted inhibition curve with a large enough effect in the signal ratio in the repeat runs, not every such curve was filed as active; inconclusive means weak or mixed curves; the % refers to the signal ratio; further: potency means the concentration at half of the fitted maximal effect; on activity change, negative = inhibition: on the % scale 0 is the no-effect control and ±100 the full control effect); conditions: PR-UAS-bla HEK293T, beta-lactamase FRET ratio, 16 h; activity change, negative = inhibition: at 92.4 µM (top of the series) unless noted
Summary of the method: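 Beta-lactamase reporter, HEK293T PR-UAS-bla line; 2% charcoal-stripped FBS; 6 hr pre-incubation, 37C/5% CO2. Compound + R5020 1 nM final, 16 hr. LiveBLAzer B/G FRET substrate, 2 hr RT; fluorescence intensity read.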

[9] = qHTS assay to identify small molecule antagonists of the progesterone receptor (PR) signaling pathway - cell viability counter screen (AID 1346798; active means well fitted curve in the direction sought with a large enough effect in the repeat runs; inconclusive means weak or mixed curves; inactive means no such curve, though single readings can be large; an effect the other way counts as inactive or inconclusive; further: potency means the concentration at half of the fitted maximal effect; nearly all actives have a fitted effect of over 50% in size)
Summary of the method: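 Luminescence readout (CellTiter-Glo, 30 min, RT) of viability in PR-UAS-bla HEK293T cells exposed to compound and R5020 agonist for 16 hr at 37C, 5% CO2; run in the same wells as the beta-lactamase reporter read.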

[10] = qHTS assay to identify small molecule agonists of the progesterone receptor (PR) signaling pathway - cell viability counter screen (AID 1346799); further: potency means the concentration at half of the fitted maximal effect; nearly all actives have a fitted effect of over 45% in size
Summary of the method: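 HEK293T PR-UAS-bla, 3,000 cells/well, 2% charcoal-stripped FBS; 6 h settle, compound 16 h at 37C/5% CO2; LiveBLAzer 2 h RT, then CellTiter-Glo 30 min RT, luminescence read.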

[11] = qHTS assay to identify small molecule antagonists of the sonic hedgehog signaling (Shh) pathway (AID 1259369); further: on the % scale 0 is the no-effect control and ±100 the full control effect; nearly all actives have a fitted effect of over 45% in size
Summary of the method: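 NIH/3T3 stable Gli1-Luc clone, 2,000 cells/well, 4hr settle; cpd + conditioned medium 24hr; Luc reagent 30min RT; luminescence.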

[12] = qHTS assay to identify small molecule agonists of the TGF-beta/Smad signaling pathway (AID 1346859; active means well fitted activation curve with a large enough effect in the signal ratio in the repeat runs, not every such curve was filed as active; inconclusive means weak or mixed curves; the % refers to the signal ratio; further: potency means the concentration at half of the fitted maximal effect); conditions: SBE-bla HEK293T, TGF-beta/Smad beta-lactamase reporter, 5 h; activation: at 76.8 µM (top of the series)
Summary of the method: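 Read-out: fluorescence at 460 and 530 nm (405 nm excitation) after a 2 hr room-temperature incubation with beta-lactamase FRET substrate. SBE-bla HEK 293T cells had been treated with test compounds for 5 hr at 37 C.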

[13] = qHTS assay to identify small molecule agonists of the androgen receptor (AR) signaling pathway in the presence of an antagonist - cell viability counter screen (AID 1259379; active means well fitted curve in the direction sought with a large enough effect in the repeat runs; inconclusive means weak or mixed curves; inactive means no such curve, though single readings can be large; an effect the other way counts as inactive or inconclusive; further: potency means the concentration at half of the fitted maximal effect; nearly all actives have a fitted effect of over 25% in size)
Summary of the method: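 MDA-kb2 viability measured by CellTiter-Fluor fluorescence in the same wells as the luciferase signal; nilutamide 3.0uM final; 15-point compound titration; 16 hr at 37C.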

[14] = qHTS assay to identify small molecule antagonists of the estrogen receptor beta (ER-beta) signaling pathway - cell viability counter screen (AID 1259382; active means well fitted curve in the direction sought with a large enough effect in the repeat runs; inconclusive means weak or mixed curves; inactive means no such curve, though single readings can be large; an effect the other way counts as inactive or inconclusive; further: potency means the concentration at half of the fitted maximal effect; nearly all actives have a fitted effect of over 55% in size)
Summary of the method: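 Readout: luminescence, CellTiter-Glo, same wells as bla assay. System: ER-beta-UAS-bla GripTite HEK293T, 2% charcoal-stripped FBS. Exposure: compounds plus 1nM 17-beta-estradiol, 16 hr, 37C.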

[15] = activation: at 92.4 µM (top of the series) unless noted
Tags describe the fitted curve by direction and shape or compound fluorescence and quenching.

UniProt Q92731, sequence (Q92731 whole entry, looked up): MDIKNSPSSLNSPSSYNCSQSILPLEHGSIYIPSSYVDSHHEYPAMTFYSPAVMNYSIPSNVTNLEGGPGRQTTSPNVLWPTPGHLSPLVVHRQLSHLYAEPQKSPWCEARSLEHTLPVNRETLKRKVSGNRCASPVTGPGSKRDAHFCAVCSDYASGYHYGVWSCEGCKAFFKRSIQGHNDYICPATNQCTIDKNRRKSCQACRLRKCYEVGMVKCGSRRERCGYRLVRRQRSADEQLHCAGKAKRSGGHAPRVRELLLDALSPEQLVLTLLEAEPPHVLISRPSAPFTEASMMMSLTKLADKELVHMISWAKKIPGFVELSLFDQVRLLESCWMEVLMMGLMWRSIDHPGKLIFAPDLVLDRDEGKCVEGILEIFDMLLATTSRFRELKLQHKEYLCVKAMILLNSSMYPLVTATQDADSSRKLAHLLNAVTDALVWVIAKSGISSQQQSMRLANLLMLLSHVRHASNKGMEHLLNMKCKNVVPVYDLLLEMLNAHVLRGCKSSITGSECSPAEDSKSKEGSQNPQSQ
UniProt P06401, sequence (P06401 whole entry, looked up): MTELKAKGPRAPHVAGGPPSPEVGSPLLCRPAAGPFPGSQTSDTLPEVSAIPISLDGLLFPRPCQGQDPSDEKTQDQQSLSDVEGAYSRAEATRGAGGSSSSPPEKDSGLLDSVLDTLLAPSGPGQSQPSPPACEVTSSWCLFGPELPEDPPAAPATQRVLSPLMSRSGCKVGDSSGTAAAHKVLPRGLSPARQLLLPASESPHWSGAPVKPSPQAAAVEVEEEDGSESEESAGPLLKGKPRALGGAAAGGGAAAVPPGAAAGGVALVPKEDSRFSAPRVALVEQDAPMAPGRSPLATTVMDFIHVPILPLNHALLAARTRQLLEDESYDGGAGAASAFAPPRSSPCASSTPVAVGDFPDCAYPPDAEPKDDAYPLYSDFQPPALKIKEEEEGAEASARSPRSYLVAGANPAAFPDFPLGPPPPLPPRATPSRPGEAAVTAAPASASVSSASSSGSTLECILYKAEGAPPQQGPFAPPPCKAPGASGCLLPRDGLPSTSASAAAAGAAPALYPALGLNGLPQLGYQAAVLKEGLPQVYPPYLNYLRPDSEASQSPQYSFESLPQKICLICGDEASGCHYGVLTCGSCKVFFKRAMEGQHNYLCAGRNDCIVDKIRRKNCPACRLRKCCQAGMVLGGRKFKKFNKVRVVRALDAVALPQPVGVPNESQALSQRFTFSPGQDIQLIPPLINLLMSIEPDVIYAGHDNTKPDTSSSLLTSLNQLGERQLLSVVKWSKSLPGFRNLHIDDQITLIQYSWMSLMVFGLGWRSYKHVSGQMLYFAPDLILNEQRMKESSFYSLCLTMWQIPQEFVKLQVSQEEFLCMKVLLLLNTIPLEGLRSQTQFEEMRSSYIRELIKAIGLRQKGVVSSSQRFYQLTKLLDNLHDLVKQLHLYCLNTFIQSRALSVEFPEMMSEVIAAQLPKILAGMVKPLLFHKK
UniProt P16473, sequence (P16473 whole entry, looked up): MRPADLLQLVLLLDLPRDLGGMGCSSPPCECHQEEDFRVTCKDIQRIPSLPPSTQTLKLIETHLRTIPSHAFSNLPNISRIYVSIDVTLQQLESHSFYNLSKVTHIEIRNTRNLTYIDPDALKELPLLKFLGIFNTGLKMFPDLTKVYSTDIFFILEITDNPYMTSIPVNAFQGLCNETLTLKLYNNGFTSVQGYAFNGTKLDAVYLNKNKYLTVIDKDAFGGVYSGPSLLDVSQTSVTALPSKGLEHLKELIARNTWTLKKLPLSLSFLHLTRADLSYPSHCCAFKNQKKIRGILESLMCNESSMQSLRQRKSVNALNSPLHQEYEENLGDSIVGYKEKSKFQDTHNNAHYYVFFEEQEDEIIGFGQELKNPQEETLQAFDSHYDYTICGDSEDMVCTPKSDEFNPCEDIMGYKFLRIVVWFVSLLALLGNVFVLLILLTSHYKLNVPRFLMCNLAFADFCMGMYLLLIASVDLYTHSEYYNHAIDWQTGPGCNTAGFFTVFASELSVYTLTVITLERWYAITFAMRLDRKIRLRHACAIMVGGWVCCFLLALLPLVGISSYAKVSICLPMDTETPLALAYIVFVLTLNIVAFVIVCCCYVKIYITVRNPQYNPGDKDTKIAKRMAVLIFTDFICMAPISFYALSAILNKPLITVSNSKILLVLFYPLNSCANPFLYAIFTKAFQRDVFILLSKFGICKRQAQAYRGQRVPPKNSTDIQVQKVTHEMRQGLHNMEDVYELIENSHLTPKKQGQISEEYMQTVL

## C=COCCOCCOCCOC=C
[1]
  Potency: inactive

## C=COCCCCO
[1]
  Potency: inactive

## C[C@H]1O[C@H](O[C@H]2[C@H](O)[C@@H](O)[C@@H](O[C@H]3[C@H](O)[C@@H](O)[C@H](O)O[C@@H]3CO)O[C@@H]2CO)[C@H](O)[C@@H](O)[C@@H]1N[C@H]1C=C(CO)[C@@H](O)[C@H](O)[C@H]1O
[1]
  activation: inconclusive: 14.4% [at 42.5 µM]
[2]
  Potency: inactive

## CCOc1cccc(N)c1
[1]
  Potency: inactive
[2]
  Potency: inactive

## CC1CCC2CC1C2(C)C (stereo not given)
[1]
  Potency: inactive

## CCN(CC)CCOc1ccc2c(c1)C(=O)c1cc(OCCN(CC)CC)ccc1-2
[1]
  Potency: inconclusive: 26.6 µM [fluorescent, partial curve]
[2]
  Potency: inconclusive: 23.7 µM [rising, partial curve]
[3]
  Potency: active: 18.8 µM
[4]
  Potency: inconclusive: 14.1 µM
[5]
  Potency: inconclusive: 11.9 µM [falling, partial curve]
[6]
  Potency: inconclusive: 13.3 µM [cytotoxic, partial curve]
[7]; [15]
  activation: inconclusive: 23.3% [at 42.5 µM]
[8]
  activity change, negative = inhibition: inconclusive: -29.6% [at 42.5 µM]
[9]
  Potency: active: 13.3 µM
[10]
  Potency: active: 16.8 µM

## C=C(C)C(=O)OCC
[1]
  activation: inconclusive: 7.4%
[2]
  Potency: inactive
[3]
  Potency: inactive
[5]
  Potency: inactive

## Nc1ccc2c(S(=O)(=O)O)cccc2c1S(=O)(=O)O
[11]
  Potency: inactive
[12]
  Potency: inactive

## C=C(C)C(=O)O[C@H]1C[C@@H]2CC[C@@]1(C)C2(C)C
[1]
  Potency: inconclusive: 4.3 µM [rising, full curve]
  activation: inconclusive: 7.01%
[2]
  Potency: inconclusive: 2.42 µM [rising, full curve]
[13]
  Potency: inconclusive: 17.1 µM [cytotoxic, partial curve]
[3]
  Potency: active: 4.3 µM
[7]; [15]
  activation: inconclusive: 1.04%
[7]; at 92.4 µM (top of the series)
  activation: inactive: -0.518%
[8]
  Potency: active: 2.71 µM
[10]
  Potency: active: 8.58 µM

## O=C(O)Cc1sc(-c2ccccc2)nc1-c1ccc(Cl)cc1
[1]
  Potency: inconclusive: 26.6 µM
[2]
  Potency: inconclusive: 11.9 µM [rising, partial curve]
[3]
  Potency: active: 21.1 µM
[14]
  Potency: inconclusive: 26.6 µM [cytotoxic]
[5]
  Potency: inactive
[9]
  Potency: inconclusive: 29.8 µM [cytotoxic]
[10]
  Potency: inconclusive: 15 µM [cytotoxic, partial curve]
[12]
  Potency: inconclusive: 21.3 µM [rising, partial curve]
